# Assay results from the supplement of paper PMC8728848.
# This is one part of the list.
# Tests used:
# Test in all cases: glycan array binding signal (z-score within array); higher = stronger binding
# Details in all cases: glycan notation: IUPAC condensed, linker removed
# [1] = biological target: Gal(b1-3)[Fuc(a1-4)]GlcNAc(b1-3)Gal(b1-4)GlcNAc
# Outline: (§1)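 The binding signal is a Z-score computed within each array and averaged over linkers. Arrays of the same protein sequence at different concentrations or buffers were also averaged together. Data originate from 3228 arrays in the Consortium for Functional Glycomics database, kept only where the protein sequence was available.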
# [2] = biological target: Gal(b1-3)[Fuc(a1-4)]GlcNAc(b1-3)Gal(b1-4)[Fuc(a1-3)]GlcNAc
# Outline: as §1
# [3] = biological target: Gal(b1-3)[GlcNAc(b1-6)]GalNAc
# Outline: as §1
# [4] = biological target: Gal(b1-3)[Neu5Ac(a2-6)]GalNAc
# Outline: as §1
# [5] = biological target: Gal(b1-3)[Neu5Ac(a2-6)]GlcNAc(b1-6)Gal(b1-4)Glc
# Outline: as §1
# [6] = biological target: Gal(b1-3)[Neu5Ac(b2-6)]GalNAc
# Outline: as §1
# Gal(b1-4)Gal = biological target: Gal(b1-4)Gal
# Outline: as §1
# [7] = biological target: Gal(b1-4)GalNAc(a1-3)[Fuc(a1-2)]Gal(b1-4)GlcNAc
# Outline: as §1
# [8] = biological target: Gal(b1-4)GalNAc(b1-3)[Fuc(a1-2)]Gal(b1-4)GlcNAc
# Outline: as §1
# Gal(b1-4)Glc = biological target: Gal(b1-4)Glc
# Outline: as §1
# Gal(b1-4)Glc6S = biological target: Gal(b1-4)Glc6S
# Outline: as §1
# Gal(b1-4)GlcNAc = biological target: Gal(b1-4)GlcNAc
# Outline: as §1
# [9] = biological target: Gal(b1-4)GlcNAc(a1-6)Gal(b1-4)GlcNAc
# Outline: as §1
# Gal(b1-4)GlcNAc(b1-2)Man = biological target: Gal(b1-4)GlcNAc(b1-2)Man
# Outline: as §1
# [10] = biological target: Gal(b1-4)GlcNAc(b1-2)Man(a1-3)Man(b1-4)GlcNAc(b1-4)GlcNAc
# Outline: as §1
# [11] = biological target: Gal(b1-4)GlcNAc(b1-2)Man(a1-3)[Gal(b1-4)GlcNAc(b1-2)Man(a1-6)]Man(b1-4)GlcNAc(b1-4)GlcNAc
# Outline: as §1
# [12] = biological target: Gal(b1-4)GlcNAc(b1-2)Man(a1-3)[Gal(b1-4)GlcNAc(b1-2)Man(a1-6)]Man(b1-4)GlcNAc(b1-4)[Fuc(a1-6)]GlcNAc
# Outline: as §1
# [13] = biological target: Gal(b1-4)GlcNAc(b1-2)Man(a1-3)[Gal(b1-4)GlcNAc(b1-2)][GlcNAc(b1-4)]Man(b1-4)GlcNAc(b1-4)GlcNAc
# Outline: as §1
# [14] = biological target: Gal(b1-4)GlcNAc(b1-2)Man(a1-3)[GlcNAc(b1-2)Man(a1-6)]Man(b1-4)GlcNAc(b1-4)GlcNAc
# Outline: as §1
# [15] = biological target: Gal(b1-4)GlcNAc(b1-2)Man(a1-3)[Man(a1-6)]Man(b1-4)GlcNAc(b1-4)GlcNAc
# Outline: as §1
# [16] = biological target: Gal(b1-4)GlcNAc(b1-2)Man(a1-6)Man(b1-4)GlcNAc(b1-4)GlcNAc
# Outline: as §1
# [17] = biological target: Gal(b1-4)GlcNAc(b1-2)Man(a1-6)[GlcNAc(b1-2)Man(a1-3)]Man(b1-4)GlcNAc(b1-4)GlcNAc
# Outline: as §1
# [18] = biological target: Gal(b1-4)GlcNAc(b1-2)Man(a1-6)[Man(a1-3)]Man(b1-4)GlcNAc(b1-4)GlcNAc
# Outline: as §1
# [19] = biological target: Gal(b1-4)GlcNAc(b1-2)[Gal(b1-4)GlcNAc(b1-4)]Man(a1-3)[Gal(b1-4)GlcNAc(b1-2)Man(a1-6)]Man(b1-4)GlcNAc(b1-4)GlcNAc
# Outline: as §1
# [20] = biological target: Gal(b1-4)GlcNAc(b1-2)[Gal(b1-4)GlcNAc(b1-4)]Man(a1-3)[Gal(b1-4)GlcNAc(b1-2)[Gal(b1-4)GlcNAc(b1-6)]Man(a1-6)]Man(b1-4)GlcNAc(b1-4)GlcNAc
# Outline: as §1
# [21] = biological target: Gal(b1-4)GlcNAc(b1-2)[Gal(b1-4)GlcNAc(b1-4)]Man(a1-3)[GlcNAc(b1-4)][Gal(b1-4)GlcNAc(b1-2)Man(a1-6)]Man(b1-4)GlcNAc(b1-4)GlcNAc
# Outline: as §1
# [22] = biological target: Gal(b1-4)GlcNAc(b1-2)[Gal(b1-4)GlcNAc(b1-4)]Man(a1-3)[GlcNAc(b1-4)][Gal(b1-4)GlcNAc(b1-2)[Gal(b1-4)GlcNAc(b1-6)]Man(a1-6)]Man(b1-4)GlcNAc(b1-4)GlcNAc
# Outline: as §1
# [23] = biological target: Gal(b1-4)GlcNAc(b1-2)[Gal(b1-4)GlcNAc(b1-6)]Man(a1-6)[Gal(b1-4)GlcNAc(b1-2)Man(a1-3)]Man(b1-4)GlcNAc(b1-4)GlcNAc
# Outline: as §1
# [24] = biological target: Gal(b1-4)GlcNAc(b1-2)[Gal(b1-4)GlcNAc(b1-6)]Man(a1-6)[GlcNAc(b1-4)][Gal(b1-4)GlcNAc(b1-2)Man(a1-3)]Man(b1-4)GlcNAc(b1-4)GlcNAc
# Outline: as §1
# [25] = biological target: Gal(b1-4)GlcNAc(b1-3)Gal(b1-3)GlcNAc
# Outline: as §1
# [26] = biological target: Gal(b1-4)GlcNAc(b1-3)Gal(b1-4)Glc
# Outline: as §1
# [27] = biological target: Gal(b1-4)GlcNAc(b1-3)Gal(b1-4)GlcNAc
# Outline: as §1
# [28] = biological target: Gal(b1-4)GlcNAc(b1-3)Gal(b1-4)GlcNAc(b1-3)Gal(b1-4)GlcNAc
# Outline: as §1
# [29] = biological target: Gal(b1-4)GlcNAc(b1-3)Gal(b1-4)[Fuc(a1-3)GlcNAc(b1-6)]Gal(b1-4)Glc
# Outline: as §1
# [30] = biological target: Gal(b1-4)GlcNAc(b1-3)Gal(b1-4)[Fuc(a1-3)]GlcNAc(b1-3)Gal(b1-4)[Fuc(a1-3)]GlcNAc
# Outline: as §1
# [31] = biological target: Gal(b1-4)GlcNAc(b1-3)GalNAc
# Outline: as §1
# [32] = biological target: Gal(b1-4)GlcNAc(b1-3)[Gal(b1-4)GlcNAc(b1-6)]Gal(b1-4)GlcNAc
# Outline: as §1
# [33] = biological target: Gal(b1-4)GlcNAc(b1-3)[Gal(b1-4)GlcNAc(b1-6)]GalNAc
# Outline: as §1
# [34] = biological target: Gal(b1-4)GlcNAc(b1-3)[GlcNAc(b1-6)]Gal(b1-4)GlcNAc
# Outline: as §1
# [35] = biological target: Gal(b1-4)GlcNAc(b1-6)Gal(b1-4)GlcNAc
# Outline: as §1
# [36] = biological target: Gal(b1-4)GlcNAc(b1-6)GalNAc
# Outline: as §1
# [37] = biological target: Gal(b1-4)GlcNAc(b1-6)[Gal(b1-3)]GalNAc
# Outline: as §1
# Gal(b1-6)Gal = biological target: Gal(b1-6)Gal
# Outline: as §1
# Gal3S(b1-3)GalNAc = biological target: Gal3S(b1-3)GalNAc
# Outline: as §1
# Gal3S(b1-3)GlcNAc = biological target: Gal3S(b1-3)GlcNAc
# Outline: as §1
binder,measurement,setting,value
"CVN (Nostoc ellipsosporum), P81180 (protein) LGKFSQTCYNSAIQGSVLTSTCERTNGGYNTSSIDLNSVIENVDGSLKWQPSNFIETCRNTQLAGSSELAAECKTRAQQFVSTKINLDDHIANIDGTLKYE",glycan array binding signal (z-score),[1],-0.304
same,glycan array binding signal (z-score),[2],-0.301
same,glycan array binding signal (z-score),[3],-0.3
same,glycan array binding signal (z-score),[4],-0.267
same,glycan array binding signal (z-score),[5],-0.299
same,glycan array binding signal (z-score),[6],-0.304
same,glycan array binding signal (z-score),Gal(b1-4)Gal,-0.276
same,glycan array binding signal (z-score),[7],-0.308
same,glycan array binding signal (z-score),[8],-0.302
same,glycan array binding signal (z-score),Gal(b1-4)Glc,-0.302
same,glycan array binding signal (z-score),Gal(b1-4)Glc6S,-0.221
same,glycan array binding signal (z-score),Gal(b1-4)GlcNAc,-0.307
same,glycan array binding signal (z-score),[9],-0.306
same,glycan array binding signal (z-score),Gal(b1-4)GlcNAc(b1-2)Man,-0.221
same,glycan array binding signal (z-score),[10],-0.299
same,glycan array binding signal (z-score),[11],-0.306
same,glycan array binding signal (z-score),[12],0.624
same,glycan array binding signal (z-score),[13],-0.3
same,glycan array binding signal (z-score),[14],-0.303
same,glycan array binding signal (z-score),[15],-0.191
same,glycan array binding signal (z-score),[16],-0.297
same,glycan array binding signal (z-score),[17],-0.304
same,glycan array binding signal (z-score),[18],-0.303
same,glycan array binding signal (z-score),[19],1.2
same,glycan array binding signal (z-score),[20],5.21
same,glycan array binding signal (z-score),[21],-0.296
same,glycan array binding signal (z-score),[22],-0.303
same,glycan array binding signal (z-score),[23],0.182
same,glycan array binding signal (z-score),[24],-0.117
same,glycan array binding signal (z-score),[25],-0.307
same,glycan array binding signal (z-score),[26],-0.284
same,glycan array binding signal (z-score),[27],-0.303
same,glycan array binding signal (z-score),[28],-0.301
same,glycan array binding signal (z-score),[29],-0.297
same,glycan array binding signal (z-score),[30],0.233
same,glycan array binding signal (z-score),[31],-0.304
same,glycan array binding signal (z-score),[32],-0.303
same,glycan array binding signal (z-score),[33],-0.095
same,glycan array binding signal (z-score),[34],-0.306
same,glycan array binding signal (z-score),[35],-0.306
same,glycan array binding signal (z-score),[36],-0.241
same,glycan array binding signal (z-score),[37],-0.302
same,glycan array binding signal (z-score),Gal(b1-6)Gal,-0.298
same,glycan array binding signal (z-score),Gal3S(b1-3)GalNAc,-0.306
same,glycan array binding signal (z-score),Gal3S(b1-3)GlcNAc,-0.291
